The values that follow come from patent US20240417453A1 (ANWITA BIOSCIENCES, published 2024).

Experiment [1] addresses T1, human IL-2Rα (CD25) (human, UniProt P01589 22-240, limits assumed).
T1 construct: also called hIL-2Rα
T1 sequence: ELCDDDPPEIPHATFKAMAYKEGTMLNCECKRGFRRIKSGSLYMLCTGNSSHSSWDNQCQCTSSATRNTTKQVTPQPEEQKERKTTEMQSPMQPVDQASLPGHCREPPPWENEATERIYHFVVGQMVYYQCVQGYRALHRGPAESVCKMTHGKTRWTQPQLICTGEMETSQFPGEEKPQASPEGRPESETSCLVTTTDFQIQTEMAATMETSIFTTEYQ
Description: BLI (OCTET RED96), receptor loaded on biosensor, global fitting. How it is done: (§1) OCTET® RED96 was used to characterize the interactions of anti-HSA-hIL-2 fusion proteins with human IL-2Rα (CD25) and IL-2Rβ (CD122). Briefly, hIL-2Rα and hIL-2Rβ were each loaded onto a biosensor. Each biosensor was then dipped into a solution containing an anti-HSA-hIL-2 fusion protein at 10 to 2,000 nM. Primary experimental data was analyzed with global fitting to determine a binding affinity (Kd).

The target of experiment [2] is T2, human IL-2Rβ (CD122) (human, UniProt P14784 27-239).
T2 construct: also called hIL-2Rβ
T2 sequence: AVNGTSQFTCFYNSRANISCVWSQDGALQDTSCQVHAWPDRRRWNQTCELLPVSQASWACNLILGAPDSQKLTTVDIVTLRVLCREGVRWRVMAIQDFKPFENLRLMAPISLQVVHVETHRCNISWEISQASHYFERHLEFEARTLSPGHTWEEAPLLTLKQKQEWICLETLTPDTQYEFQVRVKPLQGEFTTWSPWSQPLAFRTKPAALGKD
Described as above. How it is done: as §1

B1: anti-HSA-hIL-2 fusion protein C1 (hIL-2 mutein-anti-HSA (C125S) C1) (other)
chain: [omitted - about 150 residues]GGGGSGGGGSGGGGSGGGGSEVQLVESGGGLVQPGGSLRLSCAASGSTWSINTLAWYRQAPGKQRDLVARISSGGSTYYADSVKGRFTISRDNSKNTLYLQMNSLRAEDTAVYYCYAQSTWYPPSWGQGTLVTVSS
notes: Produced in CHO cells; also called hIL-2 mutein (C125S) fusion
One may read the Kd as a measure of binding affinity in units of concentration. Lower therefore signals higher affinity. For B1, the figures for the Kd in experiment [1] and in experiment [2] were 6.5 nM and 533 nM, respectively.
